These are yes or no findings as the source states them, for the method shown. For some assays here: In cells and extracts the contact can be indirect. Some entries that bind do so weakly or less than the wild type. For some assays here: Sequences can lack the tags named with a protein. Values belong to the binder of their own block, whether it stands above or below them.
Legend:
[1] = molecular target: T1, biotinylated-AviTag-FICD^H363A (human) (UniProt Q9BVA6); assay: BLI; 3 nM biotinylated-AviTag-FICD^H363A incubated 10 min at 25°C with 300 nM FICD^H363A, hetero-labelled dimers loaded on streptavidin biosensors; dissociation into HKTx with or without 5 mM nucleotide; signal of sensors incubated with FICD^L258D-H363A subtracted; dimer to monomers; both purified
T1 sequence (chain, biotin on the AviTag): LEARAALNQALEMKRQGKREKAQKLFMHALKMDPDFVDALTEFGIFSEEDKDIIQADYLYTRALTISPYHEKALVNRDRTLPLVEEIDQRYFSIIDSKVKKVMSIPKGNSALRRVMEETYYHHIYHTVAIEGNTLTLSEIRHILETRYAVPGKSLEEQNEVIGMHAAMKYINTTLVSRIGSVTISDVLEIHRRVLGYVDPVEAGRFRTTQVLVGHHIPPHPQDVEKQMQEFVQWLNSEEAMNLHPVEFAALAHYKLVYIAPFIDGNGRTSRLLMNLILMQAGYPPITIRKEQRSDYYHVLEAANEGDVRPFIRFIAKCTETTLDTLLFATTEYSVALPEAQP

Protein sequences, listed by entry. Tags and fused reporters are not part of them. Lines headed by an entry give the natural chain unless they say otherwise; changes in a name come on top. Chains listed by the source or under a name are the forms on record and can include a tag or linker.
biotinylated-AviTag-haBiP^T229A-V461F (G3I8R9, form named): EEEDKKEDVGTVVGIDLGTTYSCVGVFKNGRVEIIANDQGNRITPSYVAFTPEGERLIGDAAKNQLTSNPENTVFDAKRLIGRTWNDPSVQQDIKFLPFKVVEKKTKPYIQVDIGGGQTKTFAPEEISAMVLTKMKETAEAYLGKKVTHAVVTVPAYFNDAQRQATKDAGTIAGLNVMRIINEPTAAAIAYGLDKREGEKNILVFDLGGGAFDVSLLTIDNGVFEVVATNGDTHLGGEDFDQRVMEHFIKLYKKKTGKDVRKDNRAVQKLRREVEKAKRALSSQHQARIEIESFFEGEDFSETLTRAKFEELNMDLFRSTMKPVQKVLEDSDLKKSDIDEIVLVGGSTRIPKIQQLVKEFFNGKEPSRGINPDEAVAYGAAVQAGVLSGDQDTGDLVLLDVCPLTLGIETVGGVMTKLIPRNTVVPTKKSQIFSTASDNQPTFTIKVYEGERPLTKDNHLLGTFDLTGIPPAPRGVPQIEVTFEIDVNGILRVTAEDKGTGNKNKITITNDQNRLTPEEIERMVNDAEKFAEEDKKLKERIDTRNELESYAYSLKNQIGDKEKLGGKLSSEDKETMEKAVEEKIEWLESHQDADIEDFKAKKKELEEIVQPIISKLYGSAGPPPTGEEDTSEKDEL

[2] = molecular target: biotinylated-AviTag-haBiP^T229A-V461F (Chinese hamster) (UniProt G3I8R9); assay: condition: only BiP not pre-saturated with ATP (FICD at 250 nM); BLI; as a6 but the immobilised BiP^T229A-V461F left nucleotide-free (not pre-saturated with ATP); FICD at 250 nM; both purified
[3] = molecular target: Oregon Green-labelled FICD^L258D-NC (monomeric control carrying an N-terminal cysteine) (human) (UniProt Q9BVA6); assay: AUC; fluorescence-detected sedimentation velocity; Oregon Green-labelled FICD from 1.6 μM to 31 pM; 50 mM HEPES-KOH pH 7.4, 150 mM KCl, 10 mM MgCl2, 1 mM CaCl2, 0.3 mM TCEP, 0.1% Tween-20, 0.15 mg/ml BSA; 45,000 rpm, 20°C; monomer-dimer isotherm of signal-averaged s; dimer to monomers; both …
[4] = molecular target: wild-type FICD co-expressed in CHO-K1 cells as His6-AviTag-FICD and FLAG-FICD (human) (UniProt Q9BVA6); assay: pull-down + co-IP; CHO-K1 cells co-transfected with His6-AviTag-FICD and FLAG-FICD (wild type or L258D) and BirA, 50 μM biotin; lysates on streptavidin Dynabeads or anti-FLAG M2 affinity gel, 60-90 min at 4°C, RIPA washes; detection with IRDye 800CW streptavidin or anti-FLAG
[5] = molecular target: FICD^L258D co-expressed in CHO-K1 cells as His6-AviTag-FICD^L258D and FLAG-FICD^L258D (human) (UniProt Q9BVA6); assay: as above

binding [1]: binds
B1: catalytically inactive, dimeric FICD^H363A (residues 104-445) (domain or fragment, UniProt Q9BVA6 104-445)
chain: LEARAALNQALEMKRQGKREKAQKLFMHALKMDPDFVDALTEFGIFSEEDKDIIQADYLYTRALTISPYHEKALVNRDRTLPLVEEIDQRYFSIIDSKVKKVMSIPKGNSALRRVMEETYYHHIYHTVAIEGNTLTLSEIRHILETRYAVPGKSLEEQNEVIGMHAAMKYINTTLVSRIGSVTISDVLEIHRRVLGYVDPVEAGRFRTTQVLVGHHIPPHPQDVEKQMQEFVQWLNSEEAMNLHPVEFAALAHYKLVYIAPFIDGNGRTSRLLMNLILMQAGYPPITIRKEQRSDYYHVLEAANEGDVRPFIRFIAKCTETTLDTLLFATTEYSVALPEAQP

binding [3]: no binding
B3: Oregon Green-labelled FICD^L258D-NC (monomeric control carrying an N-terminal cysteine) (domain or fragment, UniProt Q9BVA6 104-445)
chain: CLEARAALNQALEMKRQGKREKAQKLFMHALKMDPDFVDALTEFGIFSEEDKDIIQADYLYTRALTISPYHEKALVNRDRTLPLVEEIDQRYFSIIDSKVKKVMSIPKGNSALRRVMEETYYHHIYHTVAIEGNTLTLSEIRHILETRYAVPGKSDEEQNEVIGMHAAMKYINTTLVSRIGSVTISDVLEIHRRVLGYVDPVEAGRFRTTQVLVGHHIPPHPQDVEKQMQEFVQWLNSEEAMNLHPVEFAALAHYKLVYIHPFIDGNGRTSRLLMNLILMQAGYPPITIRKEQRSDYYHVLEAANEGDVRPFIRFIAKCTETTLDTLLFATTEYSVALPEAQP
modifications: Oregon Green 488 on the N-terminal cysteine (labelling efficiency 9.6%)

binding [4]: binds
B4: wild-type FICD co-expressed in CHO-K1 cells as His6-AviTag-FICD and FLAG-FICD (enzyme, UniProt Q9BVA6 1-458)
chain: MMLIPMASVMAVTEPKWVSVWSRFLWVTLLSMVLGSLLALLLPLGAVEEQCLAVLKGLYLLRSKPDRAQHAATKCTSPSTELSITSRGATLLVAKTKASPAGKLEARAALNQALEMKRQGKREKAQKLFMHALKMDPDFVDALTEFGIFSEEDKDIIQADYLYTRALTISPYHEKALVNRDRTLPLVEEIDQRYFSIIDSKVKKVMSIPKGNSALRRVMEETYYHHIYHTVAIEGNTLTLSEIRHILETRYAVPGKSLEEQNEVIGMHAAMKYINTTLVSRIGSVTISDVLEIHRRVLGYVDPVEAGRFRTTQVLVGHHIPPHPQDVEKQMQEFVQWLNSEEAMNLHPVEFAALAHYKLVYIHPFIDGNGRTSRLLMNLILMQAGYPPITIRKEQRSDYYHVLEAANEGDVRPFIRFIAKCTETTLDTLLFATTEYSVALPEAQPNHSGFKETLPVKP
modifications: biotin on the AviTag of the His6-AviTag copy

Continued, binder first:

B2: catalytically inactive, monomeric FICD^L258D-H363A (residues 104-445) (domain or fragment, UniProt Q9BVA6 104-445)
chain: LEARAALNQALEMKRQGKREKAQKLFMHALKMDPDFVDALTEFGIFSEEDKDIIQADYLYTRALTISPYHEKALVNRDRTLPLVEEIDQRYFSIIDSKVKKVMSIPKGNSALRRVMEETYYHHIYHTVAIEGNTLTLSEIRHILETRYAVPGKSDEEQNEVIGMHAAMKYINTTLVSRIGSVTISDVLEIHRRVLGYVDPVEAGRFRTTQVLVGHHIPPHPQDVEKQMQEFVQWLNSEEAMNLHPVEFAALAHYKLVYIAPFIDGNGRTSRLLMNLILMQAGYPPITIRKEQRSDYYHVLEAANEGDVRPFIRFIAKCTETTLDTLLFATTEYSVALPEAQP
binding [2]: no binding

B5: FICD^L258D co-expressed in CHO-K1 cells as His6-AviTag-FICD^L258D and FLAG-FICD^L258D (enzyme, UniProt Q9BVA6 1-458)
chain: MMLIPMASVMAVTEPKWVSVWSRFLWVTLLSMVLGSLLALLLPLGAVEEQCLAVLKGLYLLRSKPDRAQHAATKCTSPSTELSITSRGATLLVAKTKASPAGKLEARAALNQALEMKRQGKREKAQKLFMHALKMDPDFVDALTEFGIFSEEDKDIIQADYLYTRALTISPYHEKALVNRDRTLPLVEEIDQRYFSIIDSKVKKVMSIPKGNSALRRVMEETYYHHIYHTVAIEGNTLTLSEIRHILETRYAVPGKSDEEQNEVIGMHAAMKYINTTLVSRIGSVTISDVLEIHRRVLGYVDPVEAGRFRTTQVLVGHHIPPHPQDVEKQMQEFVQWLNSEEAMNLHPVEFAALAHYKLVYIHPFIDGNGRTSRLLMNLILMQAGYPPITIRKEQRSDYYHVLEAANEGDVRPFIRFIAKCTETTLDTLLFATTEYSVALPEAQPNHSGFKETLPVKP
modifications: biotin on the AviTag of the His6-AviTag copy
binding [5]: no binding

— paper PMC6826200
